# Source: PubChem BioAssay AID651820 (National Center for Advancing Translational Sciences (NCATS), 2012)
# Where “and” joins values, the source holds several entries; their conditions need not be identical. Identical values can stand only once. Hit rate of the full screen: of about 340,000 compounds, about 12,000 (3.5%) were called active. The shares of active, inactive and inconclusive entries below differ from those in the screen. The call rests on the fitted dose curve; in most records, active means well fitted inhibition curve with a large enough effect; inconclusive means small, poorly fitted or top-dose-only effect, or another doubt; inactive means no such curve, though single readings can be large or run the other way. Potencies of inconclusive entries are left out as doubtful fits. Starred links: 1 amine or outer side, 2 acyl side, 3 side chain; linkers in the order of their positions; H or OH if unused. Positions of bridges follow the written chain, without caps; N, C: chain ends. Non-standard residues stand in square brackets, D forms with d. Residues, ends and D or L forms follow the SMILES beside them. ξ: configuration not given here. hSer(Ph(2-I,4-NO2,6-CO)) = O=C([C@H](CCOc1c(I)cc([N+](=O)[O-])cc1C(=O)[*:3])N[*:1])[*:2]; ξD = NC(CC(=O)O)C(=O)O
# Assay: qHTS Assay for Inhibitors of Hepatitis C Virus (HCV)
# Settings: Huh7.5.1 HCVcc-Cre (HCVcc is cell-culture hepatitis C virus) infection, luciferase reporter, 44 h; activity change, negative = inhibition: at 41.8 µM (top of the series) unless noted
# Summary of the method: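 Reporter virus HCVcc-Cre (~0.5 moi) infects cells exposed to compound; seeding density 1,000 cells/well with 4 h settling beforehand. Luminescence, 15 sec read, taken 44 h post-infection following a 15 min RT substrate incubation.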
# On the % scale 0 is the no-effect control and ±100 the full control effect; potency means the concentration at half of the fitted maximal effect; tags describe the fitted curve by direction and shape.
SMILES,Potency,"activity change, negative = inhibition"
Cc1ccc(N2C(=O)NC(=O)/C(=C\C=C\c3ccco3)C2=O)cc1,"inconclusive [inhibitor, single point]",
CCOC(=O)c1ccc(-c2ccc(C3Nc4ccccc4C(=O)N3O)o2)cc1 (stereo not given),"inconclusive [inhibitor, partial curve, poor fit]",
O=C(Nc1nccs1)c1ccc(-c2ccccc2Cl)o1,"inconclusive [inhibitor, partial curve]",
S=c1[nH]ccc2ccccc12,,inactive: 3.14%
COc1ccc(-n2ncc3c(=O)n(CC(=O)N4c5ccccc5CC4C)cnc32)cc1 (stereo not given),"inconclusive [inhibitor, single point]",
CSc1nc(NNC=O)cc(Oc2ccc(NC(C)=O)cc2)n1,,inactive: 7.25%
C/C(=N\S(=O)(=O)c1ccc(C)cc1)Nc1cc(C(C)C)c(O)cc1C,"inconclusive [inhibitor, single point]",
CCCCn1nnc(NC(=O)c2ccc(-c3ccccc3)cc2)n1,"inconclusive [inhibitor, single point]",
CN1CCN(CC(O)COC(c2ccc(Cl)cc2)c2ccc(Cl)cc2)CC1 (stereo not given),active: 5.01 µM,
CCOC(=O)c1c(C)nc2sc(C(N)=O)c(N)c2c1-c1ccc(OC)cc1,"inconclusive [inhibitor, single point]",
Cc1ccc(S(=O)(=O)Nc2ccc3[nH]c(=O)[nH]c3c2)c(C)c1,"inconclusive [inhibitor, partial curve]",
CCOC(=O)CCCC(=O)N1CCOCCOCCN(C(=O)CCCC(=O)OCC)CCOCCOCC1,,inactive: -6.03%
Cc1cc([N+](=O)[O-])ccc1NC(=O)Nc1ccccc1F,"inconclusive [inhibitor, partial curve]",
O=C(NNc1c([N+](=O)[O-])cc(C(F)(F)F)cc1[N+](=O)[O-])c1ccco1,,inactive: 4.07%
Cc1nnc(NC(=O)C2CC(=O)N(C(C)c3ccccc3)C2)s1 (stereo not given),,inactive: 6.32%
Cc1ccccc1-c1nc(SCc2cccnc2)c2c(=O)n(C)c(=O)n(C)c2n1,"inconclusive [inhibitor, partial curve]",
COc1ccccc1NS(=O)(=O)c1cc(NC(=O)c2ccco2)ccc1N1CCOCC1,,inactive: -27.6%
CNC(=S)N(CCc1c(C)[nH]c2ccccc12)Cc1cc(OC)c(OC)c(OC)c1,,inactive: -15.1%
CN1CCN(Cc2nc3ccccc3c(=O)n2Cc2nc(-c3ccc4ccccc4c3)cs2)CC1,active: 14.1 µM and active: 11.2 µM,
OC(CNC1CCCC1)COc1ccc(Cl)cc1 (stereo not given),"inconclusive [inhibitor, single point]",
Cc1ccc2oc(C(Cl)(Cl)Cl)cc(=O)c2c1,"inconclusive [inhibitor, single point]",
C/C(=N\NC(=O)c1cccc(S(=O)(=O)N2CCOCC2)c1)c1ccc(O)cc1,"inconclusive [inhibitor, single point]",
CC(C)CN(C(=O)COC(=O)CCc1nc2ccccc2s1)c1c(N)n(Cc2ccccc2)c(=O)[nH]c1=O,"inconclusive [inhibitor, single point]",
C=CCN1C(=O)/C(=C/C=C2/N(CC)c3ccc(S(=O)(=O)N(C)C)cc3N2CC)SC1=S,"inconclusive [inhibitor, single point]",

SMILES,Potency,"activity change, negative = inhibition"
"NC(=O)C(CC(=O)O)NC(=O)[C@@H]1CCOc2c(I)cc([N+](=O)[O-])cc2C(=O)N[C@@H](CO)C(=O)N[C@@H](Cc2ccc(O)cc2)C(=O)N1 (stereo not given in full) (SY[hSer(Ph(2-I,4-NO2,6-CO))][ξD]-NH2; lactam N-3)","inconclusive [inhibitor, full curve]",
COc1cc(NC(=O)c2ccc3c(c2)OCO3)ccc1NC(=O)c1ccco1,"inconclusive [inhibitor, full curve]",
COc1cc(/C=N/Nc2nncn2N)ccc1OCc1c(C)no[n+]1[O-],"inconclusive [inhibitor, single point]",
Cc1ccc(-c2ccc(=O)n(CC(=O)NCCN3CCCCC3C)n2)cc1 (stereo not given),,inactive: -13.2%
COC(C(=O)N1CCC(n2nccc2NC(=O)C2CC2)CC1)c1ccccc1 (stereo not given),,inactive: -5.22%
CCC(NC(=O)c1cc(COc2ccc(OC)cc2Cl)on1)c1ccncc1 (stereo not given),"inconclusive [inhibitor, single point]",
O=c1c2ccccc2c(-c2ccccc2)nn1-c1cc(Cl)ccc1[N+](=O)[O-],"inconclusive [inhibitor, partial curve]",
CC(C)(C)OC(=O)N1CCC(C(=O)Nc2cccc(C(=O)NCCCCc3ccccc3)c2)CC1,"inconclusive [inhibitor, partial curve]",
COc1ccc(C(=O)NC2CCCCCC2)cc1S(=O)(=O)N1CCCc2ccccc21,"inconclusive [inhibitor, partial curve]",
O=C1C(Cl)=C(N2CCCCC2)C(=O)C(Cl)=C1c1cnc(N2CCCCC2)s1,"inconclusive [inhibitor, single point]",
O=C1c2ccccc2C(=O)N1Cc1ccccc1F,,inactive: 3.09%
O=C(CSc1nnc(CNC(=O)c2ccccc2F)o1)Nc1ccc2c(c1)OCCO2,"inconclusive [inhibitor, single point]",
CCc1nnc(NC(=O)CSc2nc3cc4c(cc3cc2CC)OCCO4)s1,"inconclusive [inhibitor, partial curve]",
CCN1CCN(c2cc(C)c3cc(NC(=O)CCC(=O)Nc4ccc(OC)c(OC)c4)ccc3n2)CC1,,inactive: -19.5%
COc1ccc(NC(=O)CN(C)CC(=O)Nc2cccc(C(C)=O)c2)cc1,,inactive: -21.6%
O=C1CC(N2CCN(C/C=C/c3ccccc3)CC2)C(=O)N1Cc1ccc(N2CCCC2=O)cc1 (stereo not given),"inconclusive [inhibitor, partial curve]",
CCCCn1c(=O)c(C(=O)Nc2ccccc2N)c(O)c2ccccc21,"inconclusive [inhibitor, partial curve]",
COc1cc(NC(=O)C23CC4CC(C2)CC(n2cnc([N+](=O)[O-])n2)(C4)C3)cc(OC)c1,,inactive: -6.75%
COC(=O)c1ccccc1NC(=O)CSc1nc(C)cc(C)n1,,inactive: 3.18%
Cc1cc(OCC(=O)N2CCCC2)cc(C)c1Cl,"inconclusive [inhibitor, full curve]",
O=C(CCNS(=O)(=O)c1ccccc1F)N1CCN(C(c2ccccc2)c2ccccc2)CC1,"inconclusive [inhibitor, partial curve]",
O=C(COc1ccc(-n2cnnn2)cc1)Nc1ccccc1OC(F)F,"inconclusive [inhibitor, single point]",
CCCC(C)C(=O)Nc1ncc(S(=O)(=O)c2ccc([N+](=O)[O-])cc2)s1 (stereo not given),"inconclusive [inhibitor, single point]",
CCCc1cc(C(=O)NCc2cccs2)no1,,inactive: 14.5%

SMILES,Potency,"activity change, negative = inhibition"
CN(CC(=O)Nc1ccc(Cl)c(S(=O)(=O)N2CCOCC2)c1)C(=O)c1cccs1,"inconclusive [inhibitor, single point]",
COc1ccc(NC(=O)c2cccc(-n3cnnn3)c2)cc1,,inactive: 19.5%
COc1ccccc1/C=C\C(=O)NCC(=O)N/N=C(/C)c1cccc([N+](=O)[O-])c1,"inconclusive [inhibitor, full curve, poor fit]",
CCOc1ccc(S(=O)(=O)N2CCN(C(=O)c3cc4ccccc4o3)CC2)cc1,"inconclusive [inhibitor, single point]",
O=C(OCC(=O)N1CCCc2ccccc21)c1cc(S(=O)(=O)N2CCOCC2)ccc1Cl,"inconclusive [inhibitor, single point]",
CCOC(=O)C1CCCN(C(=O)c2ccc3nc(-c4cccc(OC)c4)oc3c2)C1 (stereo not given),"inconclusive [inhibitor, single point]",
COc1ccc(-c2sc3ccccc3c2C#CCO)cc1,active: 28.2 µM,
CCNC(=S)Nc1ccc(OCC)cc1,,inactive: 5.43%
COc1ccc(C(=O)NC2CC3CCCC(C2)N3Cc2ccccc2)cc1OC (stereo not given),,inactive: -9.32%
COC(=O)c1sccc1NC(=S)Nc1cc(C)ccc1OC,,inactive: 18.8%
CCOc1cc(NC(=S)NCC(C)C)c(OCC)cc1NC(=O)c1cccs1,"inconclusive [inhibitor, full curve]",
Cc1cc(C(=O)NNC(=O)NC(C)C)no1,,inactive: 8%
CC(=O)Nc1cccc(-c2nc3ccccc3[nH]2)c1,,inactive: 9.52%
C/C(=N\NC(=O)COc1cc(C)cc(C)c1)c1cccc(NC(=O)C2CCC2)c1,"inconclusive [inhibitor, full curve]",
CN/N=C(\Cc1nc2ccccc2[nH]1)c1ccc([N+](=O)[O-])cc1,,inactive: -24%
CC1CCCC(C)N1C(=O)Cn1c(SCC(=O)NCc2ccc3c(c2)OCO3)nc2ccccc21 (stereo not given),,inactive: 4.31%
Cc1ccc(S(=O)(=O)/N=C(\CCl)N2CCOCC2)cc1,active: 10 µM,
COc1cc(NS(=O)(=O)c2ccc3c(c2)oc(=O)n3C)cc(OC)c1OC,active: 10 µM,
COc1cc2ccccc2cc1C(=O)N(CCN(C)C)c1nc2ccc(C)cc2s1,active: 6.31 µM,
Cc1cc(NC(=O)c2ccc(C#N)cc2)n(-c2ccccn2)n1,"inconclusive [inhibitor, full curve, poor fit]",
CN(C)C(CNC(=O)c1ccc2c(=O)n(-c3ccccc3F)c(=S)[nH]c2c1)Cc1ccccc1 (stereo not given),active: 2.24 µM,
COc1ccc(NC2(c3ccccc3)OC(=O)c3ccccc32)cc1 (stereo not given),,inactive: -8.61%
